# Reference: PubChem BioAssay AID485294 (National Center for Advancing Translational Sciences (NCATS), 2010)
# The campaign covered roughly 370,000 compounds. About 150 (0.041%) were called active. The shares of active, inactive and inconclusive entries below differ from those in the screen. The call rests on the fitted dose curve; in most records, active means well fitted inhibition curve with a large enough effect; inconclusive means small, poorly fitted or top-dose-only effect; inactive means flat fitted curve, though single readings scatter. No potency is given beside an inconclusive call; the fits are too rough.
# Molecular target: Beta-lactamase (Escherichia coli (strain K12)) (UniProt P00811)
# Assay: qHTS Inhibitors of AmpC Beta-Lactamase (assay with detergent); further: nearly all actives have a fitted effect of over 25% in size
# Details: AmpC hydrolysis of nitrocefin, absorbance 480 nm, 0.01% Triton; series mostly up to 114 µM
# Outline: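 AmpC (5.3 nM in the dispensed reagent) in 20 mM phosphate pH 7.0 with 0.01% (detergent screen) or 0.0001% Triton X-100 was preincubated with compounds for 15 min at room temperature. Nitrocefin was then added from an 800 uM solution, and hydrolysis was followed at 480 nm.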
# Potency means the concentration at half of the fitted maximal effect; tags describe the fitted curve by direction and shape.
# Chain of UniProt P00811 (P00811 whole entry, looked up): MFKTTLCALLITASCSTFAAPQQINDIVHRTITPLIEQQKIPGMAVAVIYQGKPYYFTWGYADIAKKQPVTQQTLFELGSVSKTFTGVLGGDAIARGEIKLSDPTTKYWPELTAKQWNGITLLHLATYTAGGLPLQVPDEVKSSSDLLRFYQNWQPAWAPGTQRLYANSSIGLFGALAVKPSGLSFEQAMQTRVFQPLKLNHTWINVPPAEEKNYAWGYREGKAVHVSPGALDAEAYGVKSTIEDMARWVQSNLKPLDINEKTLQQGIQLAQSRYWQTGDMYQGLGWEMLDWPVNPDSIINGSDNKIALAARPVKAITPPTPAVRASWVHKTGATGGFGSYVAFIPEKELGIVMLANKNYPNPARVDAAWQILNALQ
row,Structure (SMILES),Potency
1,Cc1cccc(NC(=O)CN2c3ccccc3S(=O)(=O)c3ccccc32)c1C,inactive
2,CCCNC(=O)c1ccc(N2CCC3(CC2)CC(c2ccccc2)=NO3)c(NC(=O)c2ccco2)c1,inactive
3,CCOC(=O)CCSc1cc(C)c2ccccc2n1,"inconclusive [inhibitor, full curve, poor fit]"
4,c1ccc(-c2oc3ncnc(NCCN4CCOCC4)c3c2-c2ccccc2)cc1,"inconclusive [inhibitor, full curve, poor fit]"
5,COc1ccc2c(-c3ccccc3)cc3nnnn3c2c1,"inconclusive [inhibitor, partial curve, poor fit]"
6,CCCCc1cc(=O)oc2cc(C)cc(OCc3nn[nH]n3)c12,"inconclusive [inhibitor, partial curve, poor fit]"
7,COc1ccc(/C=C2\SC(=O)N=C2N)cc1OC,"inconclusive [inhibitor, full curve, poor fit]"
8,CCNc1nc(C(=O)O)nc(N2CCOCC2)n1,inactive
9,Cc1ccccc1C(=O)N1CCc2cc(-c3csc(NC(=O)CN4CCCC4)n3)ccc21,inactive
10,C/C(=N\NC(=O)c1ccc(O)cc1)c1ccc2c(c1)Nc1ccccc1S2,inactive
11,COc1ccc(CC(C)NCCC(c2ccccc2)c2ccccc2)cc1 (stereo unspecified),inactive
12,Cc1cc2nc(SCCN3CCOCC3)[nH]c2cc1C,"inconclusive [inhibitor, full curve, poor fit]"
13,COC(=O)c1ccc(NC(=O)c2cc(-c3ccncc3)nc3ccccc23)cc1,"inconclusive [inhibitor, full curve, poor fit]"
14,O=C(CNC(=O)c1cccs1)OCc1c(F)cccc1Cl,inactive
15,Oc1cccc(NC(=S)Nc2ccccc2)c1,inactive
16,CC(C)CCn1c(CN(C)Cc2ccccc2)nc2c1c(=O)n(C)c(=O)n2C,"inconclusive [inhibitor, full curve]"
17,COc1cc(/C=C/CN2CCC(Oc3ccc(C(=O)N4CCCC4)cc3)CC2)ccc1O,"inconclusive [inhibitor, partial curve]"
18,O/N=C/c1ccc(OCc2ccccc2)c(Br)c1,"inconclusive [inhibitor, full curve, poor fit]"
19,CC(C)Oc1ccc(/C(O)=C2/C(=O)C(=O)N(CCN3CCOCC3)C2c2ccccc2)cc1 (stereo unspecified),inactive
20,Cc1ccc(-c2nnc(OCCN3CCOCC3)c3ccccc23)cc1,"inconclusive [inhibitor, full curve, poor fit]"
21,CCOC(=O)c1sc2nc(C)nc(NC3CCC(O)CC3)c2c1C (stereo unspecified),"inconclusive [inhibitor, full curve, poor fit]"
22,O=C(Nc1cc(F)ccc1F)c1ccc2c(c1)nnn2C1CCCC1,inactive
23,CCCCn1nnnc1SCC(=O)NCc1ccco1,inactive

row,Structure (SMILES),Potency
1,CCOc1ccc(CC(=O)NCCc2cnc[nH]2)cc1,"inconclusive [inhibitor, full curve, poor fit]"
2,CCOC(=O)c1ccccc1NC(=O)N1CCCN(S(=O)(=O)c2ccc3c(ccn3CC)c2)CC1,inactive
3,O=C(CS(=O)(=O)c1ccc(F)cc1)NCCS(=O)(=O)c1ccccc1,inactive
4,Cc1cccc(-c2nc(CCNC(=O)c3ccccc3Br)cs2)c1,inactive
5,COc1ccc(Cn2ccnc2SCC(=O)Nc2cccc(NC(C)=O)c2)cc1,"inconclusive [inhibitor, full curve, poor fit]"
6,COc1cc(S(=O)(=O)n2nc(C)cc2C)ccc1Cl,"inconclusive [inhibitor, full curve]"
7,Cc1n[nH]c(=O)nc1N/N=C/c1ccc(O)c([N+](=O)[O-])c1,"inconclusive [inhibitor, full curve, poor fit]"
8,Cc1ccc(-n2c3nc(=O)[nH]c(=O)c-3cc3cc([N+](=O)[O-])ccc32)cc1C,"inconclusive [inhibitor, full curve, poor fit]"
9,CCN(CC)S(=O)(=O)c1ccc2[nH]c(=O)cc(C(=O)Nc3ccccc3N3CCOCC3)c2c1,inactive
10,O=C(c1cnccn1)N(Cc1cccs1)C1(C(=O)NC2CCCCC2)CCCCC1,"inconclusive [inhibitor, full curve]"
11,COc1ccc(C(=O)NCCN2CCCC2)cc1,"inconclusive [inhibitor, full curve, poor fit]"
12,COCCOc1ccc(C(F)(F)F)cc1Nc1nc2ccccc2o1,inactive
13,O=C(Nc1ccc(O)c2c(=O)cc(-c3ccccc3Cl)oc12)c1ccc(F)cc1,inactive
14,OC(c1ccccc1)(c1ccccc1)C1CCN(C(=S)NC2CCCC2)CC1,inactive
15,O=C1CCN(CCc2ccccc2)CCN1[C@H](COc1ccccc1)c1ccccc1,"inconclusive [inhibitor, partial curve, poor fit]"
16,CCOC(=O)C1=C(C)N=c2s/c(=C3\C(=O)Nc4ccccc43)c(=O)n2C1c1ccc2c(c1)OCO2 (stereo unspecified),inactive
17,CCOC(=O)c1sc2nc(N3CCCC3)c3c(c2c1N)CC(C)(C)OC3,"inconclusive [inhibitor, full curve, poor fit]"
18,COc1cccc(C(=O)NCc2ccco2)c1,"inconclusive [inhibitor, partial curve, poor fit]"
19,CC(C)c1cc(C(=O)Nc2ccc3c(c2)OCO3)no1,"inconclusive [inhibitor, partial curve]"
20,Cn1[nH]c(C(F)(F)F)cc1=O,"inconclusive [inhibitor, full curve, poor fit]"
21,CCc1ccc(NC(=O)CCCNC(=O)Cn2cnc3sc(C)c(C)c3c2=O)cc1,"inconclusive [inhibitor, full curve, poor fit]"
22,Cc1c(Cl)cccc1NC(=O)CCN1C(=O)NC(C)(C)C1=O,"inconclusive [inhibitor, full curve, poor fit]"
23,O=C(/C=C\Nc1cccc(F)c1)c1ccc2c(c1)OCO2,"inconclusive [inhibitor, full curve]"
